We go through one compound from article PMC10201506 (Signal Transduction and Targeted Therapy, 2023).

The test relates to HCoV-229E. The test can be described thus: In vitro antiviral activity against HCoV-229E. It is filed as cell-based. The conditions noted are these: in words.

For `O=C(c1cc(=O)[nH]c2ccccc12)N1CCN(c2ccc(Cl)c(Cl)c2)CC1CN1CCOCC1` (stereo not shown) [JZD-07, 4-(4-(3,4-Dichlorophenyl)-2-(morpholinomethyl)piperazine-1-carbonyl)quinolin-2(1H)-one], the “antivirus activity against HCoV-229E” value is recorded as “good antivirus activities”.
